From patent US11413334B2, “Lysin polypeptides active against Gram-negative bacteria” (CONTRAFECT CORPORATION, priority 2015, dated 2022)

System: PAO1 cells
Experiment: Killing assay of GN4-derived peptides in Tris-HCl buffer
Settings: peptide 10 mcg/ml, 1 hour, 20 mM Tris-HCl pH 7.2; compared with other peptides or buffer
Method: A single C-terminal cysteine was added to FGN4-1 (SEQ ID NO: 7) to generate FGN4-4 (SEQ ID NO: 10). For the 3 additional peptides, the 11 C-terminal residues of FGN4-1 were either removed (FGN4-2, (SEQ ID NO: 8)) or removed and replaced with either a single lysine (K) residue (FGN4-3, (SEQ ID NO: 9)) or an 8-residue antibacterial peptide identified from the hepatitis B capsid (PGN4, (SEQ ID NO: 6)).

With “FGN4-3: FGN4-1 with 11 C-terminal residues replaced by a single lysine (NKGDYQGAADQFPRWVNAGGKRLDGLVKRRK; artificially-created modified fragment of GN4 (SEQ ID NO 3))” the “antibacterial activity of GN4-derived peptides (viability assay, FIG. 6)” value was “greater antibacterial activity than the other GN4 peptides tested”.
